# Experimental data published in PubChem BioAssay AID651820 (National Center for Advancing Translational Sciences (NCATS), 2012).
# The campaign covered roughly 340,000 compounds. About 12,000 (3.5%) were called active. Inconclusive results, whose numbers are uncertain, are shown with a selection of clear calls. Calls come from the whole dose curve; as a rule, active = well fitted inhibition curve with a large enough effect; inconclusive = small, poorly fitted or top-dose-only effect, or another doubt; inactive = no such curve, though single readings can be large or run the other way. No potency is given beside an inconclusive call; the fits are too rough.
# Assay: qHTS Assay for Inhibitors of Hepatitis C Virus (HCV)
# Details: Huh7.5.1 HCVcc-Cre (HCVcc is cell-culture hepatitis C virus) infection, luciferase reporter, 44 h; series mostly up to 41.8 µM
# Outline: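 1,000 cells/well; 4 h culture; + compound; + HCVcc-Cre (~0.5 moi); 44 h; luciferase substrate, RT 15 min; read 15 sec.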
# Potency is the fitted concentration of half-maximal effect; tags give direction and shape of the fitted curve.
row,SMILES,Potency
1,O=C(CCS(=O)(=O)c1cccs1)Nc1ccc(C(=O)NCc2cccs2)cc1,"inconclusive [inhibitor, single point]"
2,CCCOc1cc(C)nc(-c2ccccc2O)n1,inactive
3,O=C(CN1C(=O)/C(=C\c2ccco2)SC1=S)Nc1ccc(O)cc1C(=O)O,inactive
4,COc1ccc(CN(C)C(=O)CNC(=O)Cc2cccc3ccccc23)c(OC)c1OC,"inconclusive [inhibitor, single point]"
5,Clc1ccc(OCc2nn3c(-c4ccncc4)nnc3s2)cc1,inactive
6,Cc1ccccc1CC(=O)Nc1ccc2c(C)cc(=O)oc2c1,inactive
7,Cc1ccc(NC(=O)CNC(=O)c2cccc(Cl)c2)nc1,"inconclusive [inhibitor, partial curve]"
8,O=C(NNC(=S)NC(=O)c1ccccc1Cl)c1cccc([N+](=O)[O-])c1,"inconclusive [inhibitor, partial curve, poor fit]"
9,Cc1ccc(C(C)C)c(OCC(=O)NNC(=O)Nc2ccccc2)c1,inactive
10,CCn1cc(/C=C/C(=O)Nc2ccc(C)cc2Br)cn1,"inconclusive [inhibitor, full curve, poor fit]"
11,Cc1csc(NC(=O)c2ccc(S(=O)(=O)N3CCCC3)cc2)n1,inactive
12,Cc1ncc(CO)c(/C=N/Nc2ccc(C(F)(F)F)cn2)c1O,"inconclusive [inhibitor, single point]"
13,Cn1c(=O)[nH]c(=O)c2c1nc(N1CCCCCC1)n2CCCSc1nnnn1-c1ccccc1,inactive
14,Cc1nnc(Cn2cnc3c2c(=O)n(C)c(=O)n3C)o1,inactive
15,COc1ccc2oc(C(=O)OCC(=O)NC(C)c3ccccc3)c(C)c2c1 (stereo unspecified),"inconclusive [inhibitor, single point]"
16,Cc1cc(C)c(S(=O)(=O)Nc2ccc3c4c(cccc24)CC3)c(C)c1,"inconclusive [inhibitor, single point]"
17,Cc1c(C)n(Cc2ccc(Cl)cc2)c2ccc(C(=O)NCCN3CCOCC3)cc12,"inconclusive [inhibitor, single point]"
18,C[C@@H]1CC=C[C@H]2[C@H]1C(=O)N(Cc1ccccc1)[C@H]2c1ccc(-c2ccc(F)cc2)cc1F,inactive
19,CC1CC(C)CN(S(=O)(=O)c2ccc(NC(=O)c3ccc(=O)[nH]c3)cc2)C1 (stereo unspecified),"inconclusive [inhibitor, partial curve]"
20,CCC(C(=O)NCCCN1CC(C)CC(C)C1)n1ncn2c(cc3occc32)c1=O (stereo unspecified),inactive
21,O=C(c1cnn(Cc2ccccc2)c1)N1CCN(S(=O)(=O)/C=C/c2ccccc2)CC1,inactive
22,Nn1cnnc1N/N=C/c1cc(Br)cc(Br)c1O,"inconclusive [inhibitor, partial curve]"
23,CN(CC(=O)NC(=O)NCc1ccccc1)CC(=O)Nc1ccc(Cl)c(C(F)(F)F)c1,"inconclusive [inhibitor, single point]"
24,COCCCn1c(C)cc(C(=O)CN2c3cccc4cccc(c34)S2(=O)=O)c1C,"inconclusive [inhibitor, single point]"

row,SMILES,Potency
1,COc1cc(OC)cc(-c2c(C#Cc3ccsc3)c3cc(-c4cccc5[nH]cc(C=O)c45)ccc3n2C)c1,active: 10 µM
2,CCOC(=O)CSc1nc2c(c(=O)n1-c1ccc(OCC)cc1)SCC2,inactive
3,O=C1CCCC2=C1C(c1ccccc1)C1C(=O)c3ccccc3C1=N2 (stereo unspecified),"inconclusive [inhibitor, single point]"
4,Cc1c(C(=O)NC(=S)Nc2ccc(N3CCOCC3)cc2)cccc1[N+](=O)[O-],inactive
5,Cc1ccc(C(=O)Nc2nnc(C)s2)o1,inactive
6,CC(=O)c1c(C)[nH]c(C(=O)Nc2cc(C)cc(C)c2)c1C,"inconclusive [inhibitor, full curve]"
7,O=C(NCCCCNCCCNC(=O)c1ccccc1)c1ccccc1,inactive
8,CNC(=S)N(CCc1c(C)[nH]c2ccc(OC)cc12)Cc1cc(OC)c(OC)c(OC)c1,"inconclusive [inhibitor, partial curve]"
9,CC1=C[C@H](C)[C@H](c2c(F)cccc2Cl)CC1=O,inactive
10,O=C(c1noc2c1CCCC2)N1CCN(C(c2ccccc2)c2ccccc2)CC1,"inconclusive [inhibitor, single point]"
11,CCN(CC)CCNC(=O)C(=O)Nc1ccc2c(c1)N(S(=O)(=O)c1cccs1)CCC2,"inconclusive [inhibitor, partial curve, poor fit]"
12,CCOC(=O)C(=CNc1cc(C)nn1-c1ccc(C)cc1)C(=O)OCC,"inconclusive [inhibitor, full curve]"
13,c1ccc(COc2ccc(OCCCNC3CCCC3)cc2)cc1,"inconclusive [inhibitor, partial curve]"
14,CCN1CCN(CCNC(=O)c2ccc3nc(-c4cccc(C)c4)c(-c4cccc(C)c4)nc3c2)CC1,"inconclusive [inhibitor, full curve]"
15,Cc1ccccc1-c1ccc(/C=C2/SC(N3CCOCC3)=NC2=O)o1,"inconclusive [inhibitor, partial curve, poor fit]"
16,CCCC(=O)Nc1nnc(CCN2CCCCC2)s1,"inconclusive [inhibitor, single point]"
17,CCCCC(CC(O)COCCC)C(=O)NN (stereo unspecified),inactive
18,COc1ccc(N2CCN(CCCNC(=O)c3ccc(CS(=O)(=O)c4ccc(OC)cc4)o3)CC2)cc1,"inconclusive [inhibitor, single point]"
19,CN(c1ccccc1)S(=O)(=O)c1cccc(NC(=O)C2CC(=O)N(Cc3ccccc3)C2)c1 (stereo unspecified),active: 12.6 µM
20,Cc1ccc(S(=O)(=O)CNC(=S)c2cccc(Cl)c2)cc1,inactive
21,COc1cc(NC(=O)CCC(=O)Nc2ccc3nc(N4CCOCC4)cc(C)c3c2)cc(OC)c1OC,"inconclusive [inhibitor, partial curve, poor fit]"
22,CCOC(=O)c1cnc(SCc2ccc(C(C)(C)C)cc2)nc1N,"inconclusive [inhibitor, single point]"
23,CCNC(=O)CCc1nc(-c2ccc(C(C)(C)C)cc2)no1,"inconclusive [inhibitor, partial curve, poor fit]"
24,CCC(C)NC(=O)c1ccc(CSCc2cccc(F)c2)o1 (stereo unspecified),"inconclusive [inhibitor, partial curve]"

row,SMILES,Potency
1,Cc1cc(=O)oc2cc(OC(C)C(=O)Nc3ccc(N4CCOCC4)cc3)ccc12 (stereo unspecified),"inconclusive [inhibitor, single point]"
2,CCCOc1cc(C)c(S(=O)(=O)N2CCN(C)CC2)cc1C,"inconclusive [inhibitor, single point]"
3,COc1ccc(S(=O)(=O)Nc2cccnc2)c(C)c1C,inactive
4,COC(=O)[C@@H]1Cc2c([nH]c3ccccc23)C(C)N1C(=O)c1ccccc1 (stereo partly specified),"inconclusive [inhibitor, single point]"
5,Cc1cc(C)c(C)c(S(=O)(=O)N2CCN(C(=O)CCc3nc4ccccc4c(=O)[nH]3)CC2)c1C,"inconclusive [inhibitor, partial curve]"
6,Cc1cccc(Nc2nnc(SCC(=O)NC3CCCc4ccccc43)s2)c1C (stereo unspecified),"inconclusive [inhibitor, partial curve]"
7,CCCOc1cccc(C2C(C(=O)c3ccc(C)o3)=C(O)C(=O)N2CCN2CCOCC2)c1 (stereo unspecified),inactive
8,Cc1ccc([N+](=O)[O-])c(OCCN2CCC(Cc3ccccc3)CC2)c1,"inconclusive [inhibitor, single point]"
9,CC1(C)CC(NC(=O)c2ccccn2)CC(C)(C)N1O,inactive
10,CC1Cc2ccccc2N1C(=O)c1ccc(N2CCCC2)c([N+](=O)[O-])c1 (stereo unspecified),active: 12.6 µM
11,Cc1cnn(-c2cc(N/N=C/c3ccccc3)ncn2)c1,inactive
12,O=C(CNc1cccc(S(=O)(=O)N2CCOCC2)c1)Nc1ccc(C(F)(F)F)cc1,"inconclusive [inhibitor, partial curve]"
13,COC(=O)c1cc(=O)n(-c2ccccc2)c(=Nc2ccccc2)s1,"inconclusive [inhibitor, single point]"
14,COc1ccc2oc(-c3ccc(NC(=O)c4ccc(N5CCOCC5)c([N+](=O)[O-])c4)cc3)nc2c1,"inconclusive [inhibitor, full curve]"
15,C=COCCCNc1ncnc2sc(-c3ccccc3)cc12,active: 8.91 µM
16,Cc1cc(C(=O)COC(=O)c2ccccc2NCCO)c(C)n1CC1CCCO1 (stereo unspecified),"inconclusive [inhibitor, partial curve]"
17,CSc1nc(S(=O)(=O)c2ccccc2)c(Cl)s1,"inconclusive [inhibitor, single point]"
18,CCCOC1CCCN(Cc2nc(-c3cnccn3)no2)C1 (stereo unspecified),inactive
19,COc1ccc(N2CCN(C(=O)CCCC(=O)c3ccccc3)CC2)cc1,inactive
20,O=C1C=C(NCCN2CCOCC2)C(=O)c2cnccc21,"inconclusive [inhibitor, partial curve]"
21,COc1cccc(Nc2nc3ccccc3n3cnnc23)c1,"inconclusive [inhibitor, single point]"
22,O=C(c1ccc(N2CCCC2=O)cc1)N1CCN(c2ccc(Cl)cc2)CC1,"inconclusive [inhibitor, single point]"
23,CCCN(CCC)CCCNC(=O)c1cc2c(-c3ccc(OC)c(OC)c3)nn(C)c2s1,"inconclusive [inhibitor, partial curve]"
